Assay results published in the supplement of paper PMC12889115.
Some of the results follow. Rule as the data show it: active = 25% or less and inactive = the rest. Most values come without repeats; read them as rough.

Tests used:
[1] = tested on: Salmonella enterica serovar Typhimurium SL1344; assay: bacterial growth OD600 after 18 h in MHB with 0.5 µg/mL polymyxin B; higher = more bacterial growth (less inhibition); conditions: 25 µM; polymyxin B 0.5 µg/mL; system: broth
Protocol: (§1)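 Secondary screen of the 553 primary hits at 25 µM. (i) S. Typhimurium SL1344 grown in Mueller-Hinton broth with 0.5 µg/mL polymyxin B, OD600 read after 18 h. (ii) SAFIRE assay: RAW 264.7 macrophages infected with S. Typhimurium sifB::gfp (MOI 30); compound added 2 h post-infection; cells fixed at 18 h; GFP-positive pixel fraction per macrophage imaged by confocal microscopy and expressed as % of DMSO control.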

[2] = tested on: Salmonella enterica serovar Typhimurium SL1344; assay: intramacrophage bacterial GFP load (SAFIRE), percent of DMSO control (% of DMSO); higher = more intracellular bacteria (less inhibition); conditions: 25 µM; system: infected RAW 264.7 macrophages
Protocol: as §1
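For bacterial growth OD600 after 18 h in MHB with 0.5 µg/mL polymyxin B in this document: polymyxin B level opens the outer membrane while sparing the inner membrane, with novobiocin wells as reference growth inhibitor.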
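For intramacrophage bacterial GFP load (SAFIRE), percent of DMSO control in this document: compounds tested were the hits of an earlier 50 µM broth growth screen of a drug-like diversity library run with polymyxin B.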

| Compound | bacterial growth OD600 [1] | intramacrophage bacterial GFP load [2] |
| --- | --- | --- |
| COCCC1CCCCN1C(=O)CC1(c2ccc(-c3ccccc3)cc2)CC(=O)N(C2CC2)C1=O (configuration not stated) | -0.014 | inactive: 52.8 |
| COc1ccc(OC)c(S(=O)(=O)N(Cc2ccncc2)Cc2cccc(OCCCc3ccncc3)c2)c1 | 0 | – |
| CCC1CN(C(=O)c2cccc(Cn3cccn3)c2)Cc2ccc(Cl)cc2O1 (configuration not stated) | 0 | – |
| Cc1ccc(S(=O)(=O)N2CCC(CO)(Cc3cccc(C(F)(F)F)c3)CC2)s1 | 0.002 | inactive: 123 |
| CCOC(=O)C1(Cc2ccccc2F)CCCN(C(=O)c2c(C)nc3sccn23)C1 (configuration not stated) | 0.535 | inactive: 85.8 |
| O=C(Nc1cccc(-c2ccc(F)cc2)c1)C1CCCN(C(=O)c2ccoc2)C1 (configuration not stated) | 0.003 | – |
| COc1ccc(-c2noc(CN(C)Cc3cnn(-c4ccccc4C)c3)n2)cc1 | 0.008 | inactive: 114 |
| COc1ccccc1CNC(=O)c1c(OC)cc(=O)n2c1CCN(CC1=CC[C@H]3C[C@@H]1C3(C)C)CC2 | 0.011 | inactive: 114 |
| CCCCN(C)C(=O)c1sc2ncnc(N3CCCCCCC3)c2c1C | 0.003 | – |
| CC(C)S(=O)(=O)c1ncc(CN(C)Cc2cccs2)n1CCc1ccccc1 | -0.011 | inactive: 42.6 |
| COC(=O)c1ccc(CN2CCOc3ccc(C(C)(O)COc4ccccc4)cc3C2)cc1 (configuration not stated) | -0.013 | inactive: 93.5 |
| C=CCCC(=O)N1CCCC(C(=O)Nc2cccc(-c3ccc(F)cc3)c2)C1 (configuration not stated) | 0.05 | inactive: 122 |
| Cc1ccn2c(CNCc3ccc4c(c3)OCO4)c(C(=O)N3CCCCCC3)nc2c1 | 0.516 | inactive: 32.2 |
| CSc1ccccc1C(=O)NCc1c(C)ncc2c1CCN(C(=O)c1cc3ccccc3o1)C2 | -0.006 | inactive: 59.5 |
| CCc1noc(C)c1C(=O)N1CCC(CCC(=O)N2CCC(Cc3ccccc3)CC2)CC1 | 0.293 | inactive: 69.3 |
| Cc1cccc(-c2cnc(C)nc2C2CCCN(C(=O)C34CC5CC(CC(C5)C3)C4)C2)c1 (configuration not stated) | -0.006 | inactive: 57.8 |
| CC#CCOc1ccc(CN(C(=O)c2ccccc2OC)C2CCCC2)cc1 | -0.013 | inactive: 141 |
| CCOC(=O)C1(Cc2ccccc2C(F)(F)F)CCN(Cc2cnc(C)s2)CC1 | 0.004 | active: 7.71 |
| Cc1ccc2c(c1)CN(CC(=O)N1CCC(c3ccncc3)CC1)CC(c1ccsc1)O2 (configuration not stated) | 0.001 | inactive: 47 |
| Fc1cc(CNc2nc3nonc3nc2N2CCOCC2)cc(C(F)(F)F)c1 | -0.002 | inactive: 138 |
| O=C(c1ccc2oc(-c3cccc(F)c3)nc2c1)N1C[C@@H]2CCC[C@H]1C2 | 0.03 | inactive: 108 |
| COc1cccc(CN2CCC(C(=O)Nc3ccccc3-c3cccc(OC)c3)CC2)c1 | -0.005 | active: 0.0359 |
| CN(Cc1ccccc1)C1(C(=O)NCCn2cccn2)Cc2ccccc2C1 | 0.003 | inactive: 42.3 |
| CC(C(=O)N(Cc1ccncc1)Cc1cccc(OCCc2ccc(F)cc2)c1)c1n[nH]c(=O)c2ccccc12 (configuration not stated) | 0 | inactive: 48.7 |
| CCOC(=O)C1(C/C=C/c2ccccc2)CCCN(Cc2ccncc2)C1 (configuration not stated) | 0.067 | active: 17.9 |
| Cc1nc(N2CCC(C(=O)N3CCNC(=O)C3c3cccc(F)c3)CC2)nc2ccc(C(C)C)cc12 (configuration not stated) | 0.004 | inactive: 92.1 |
| O=C(c1cc(COc2ccc3c(c2)CCCC3)on1)N1CCN(C2CCCC2)C(=O)C1 | 0 | inactive: 128 |
| Cc1ccc2c(c1)CN(CC(=O)NCc1cnn(Cc3ccccc3)c1)CC(c1ccsc1)O2 (configuration not stated) | -0.019 | inactive: 54.4 |
